Data on 111 molecules can be found in PubChem BioAssay AID488969 (Vanderbilt High Throughput Screening Facility, 2010).

In all, about 110,000 compounds were measured (“z-score”: median about -0.1, highest 2% from about 2 on). The list shows a part of the results.

The target in this test is Metabotropic glutamate receptor 8 (Rattus norvegicus) (UniProt P70579). The test can be described thus: mGluR8 Gi/Go-coupled signaling modulation – cell-based, rat, thallium flux, HTS, primary screen (AID 488969). The conditions noted are these: HEK293 rat mGluR8, GIRK (G protein-gated inwardly rectifying potassium channel) thallium flux, FluoZin2; at 10 µM; stronger effect = higher value; submaximal glutamate (EC20) added with thallium.
Chain of UniProt P70579 (P70579 whole entry, looked up): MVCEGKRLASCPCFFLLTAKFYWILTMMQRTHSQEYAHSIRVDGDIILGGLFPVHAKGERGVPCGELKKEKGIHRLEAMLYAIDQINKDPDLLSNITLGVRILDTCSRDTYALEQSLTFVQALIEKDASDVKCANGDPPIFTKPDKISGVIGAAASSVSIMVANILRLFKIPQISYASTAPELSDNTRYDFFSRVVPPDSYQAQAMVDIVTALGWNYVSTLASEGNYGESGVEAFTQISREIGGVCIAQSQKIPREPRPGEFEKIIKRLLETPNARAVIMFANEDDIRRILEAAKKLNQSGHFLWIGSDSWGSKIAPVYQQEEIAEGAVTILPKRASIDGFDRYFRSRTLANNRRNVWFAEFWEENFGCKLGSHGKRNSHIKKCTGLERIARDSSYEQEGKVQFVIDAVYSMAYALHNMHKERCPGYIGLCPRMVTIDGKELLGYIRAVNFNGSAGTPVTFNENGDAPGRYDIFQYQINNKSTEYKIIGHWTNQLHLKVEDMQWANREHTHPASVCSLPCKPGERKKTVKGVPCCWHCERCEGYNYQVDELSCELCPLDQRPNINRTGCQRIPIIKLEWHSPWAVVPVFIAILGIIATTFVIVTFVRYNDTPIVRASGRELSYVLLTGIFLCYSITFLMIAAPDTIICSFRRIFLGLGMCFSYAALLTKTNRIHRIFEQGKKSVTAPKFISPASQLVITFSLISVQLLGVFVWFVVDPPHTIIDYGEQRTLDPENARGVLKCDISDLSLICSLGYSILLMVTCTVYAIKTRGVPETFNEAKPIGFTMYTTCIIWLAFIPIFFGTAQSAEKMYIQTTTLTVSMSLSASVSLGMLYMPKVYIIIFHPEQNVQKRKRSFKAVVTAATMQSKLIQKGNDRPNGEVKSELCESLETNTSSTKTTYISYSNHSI
`Cc1cc(C)cc(-n2nnc(C(=O)NCc3ccc4c(c3)OCO4)c2N)c1` displayed a z-score of 1.32. The value for `CCOC(=O)CNC(=O)CSc1nc(NCc2ccccc2)nc(N(C)C)n1` was -0.893; that for `C=C(C)c1cccc(C(C)(C)NC(=O)Nc2ccccc2OCC)c1` was -0.0167; that for `CCOC(=O)c1c(C)noc1CP(=O)(c1ccccc1)c1ccccc1` was 0.284. The value for `CN1CCN(C(=O)c2cnn(-c3ccccc3)c2NC(=O)c2ccccc2F)CC1` was 0.658; that for `Cc1ccc(-n2c(CCC(=O)O)ccc2-c2cccs2)cc1` was -0.204; that for `Cc1occc1C(=O)Nc1cccc(Cn2cccn2)c1` was -0.737. For the molecule `c1ccc(CCn2nnnc2CN2CCCc3ccccc32)cc1`, the z-score is -0.227. `Cc1ccc2c(CC(=O)NC3=NCCS3)coc2c1`: the z-score was -0.993.

As for `COc1ccc(-c2nc(-c3cccc(C)c3)[nH]c(=O)c2C#N)cc1`, the z-score is -0.296. In turn, `Cc1ccc(CNC(=O)C2CC(c3ccccc3[N+](=O)[O-])=NO2)cc1` (stereo unspecified) displayed a z-score of -0.165. The same measure for `CCOc1ccc(-c2nnn(CC(=O)NCc3ccc4c(c3)OCO4)n2)cc1`: -0.161; for `COc1ccc(C(=O)Nc2ccc3c(c2)OCO3)cc1OC`: -0.089; for `CC1CSc2nnc(CCc3ccccc3)n21` (stereo unspecified): -0.325. The value for `O=C(c1ccc(F)cc1)[C@@H]1[C@@H](C(=O)c2ccccc2)[C@@]2(C(=O)Nc3ccccc32)[C@H]2c3ccccc3C=CN12` was -0.164; that for `O=C(Cc1cccs1)Nc1ccc2c(c1)C(=O)OC2` was 0.917; that for `COc1ccccc1CNC(=O)CCS(=O)(=O)c1ccc2c(c1)CCCN2C(C)=O` was 0.626.

`Clc1ccccc1Cn1nnc(-c2cccs2)n1` had a z-score of -0.411. The value for `CCOC(=O)c1cnn(-c2ccccc2)c1-n1cccc1C(=O)C(=O)Nc1ccccc1C(F)(F)F` was 0.509. The value for `CC(=O)Oc1ccc2c(c1)C(=O)c1ccccc1CO2` was -0.297.

In turn, `Cc1ccc2c(c1)cc(CN(Cc1cccs1)C(=O)c1ccco1)c1nnnn12` showed a z-score of -0.454. `c1ccc(Cn2c(CNc3nc4ccccc4n3CCN3CCCCC3)nc3ccccc32)cc1` displayed a z-score of 1.4.

`CC(C)C(OC(=O)c1cc2c(s1)CCCCC2)C(=O)NC(N)=O` (stereo unspecified) yielded a z-score of 0.134.

Take `CCOC(=O)C1=C(CSc2nc(CC)c(C)cc2C#N)OC(N)=C(C#N)C1c1ccc(OC)cc1` (stereo unspecified): the z-score is -0.213.

`COc1ccccc1C1NC(=O)NC(C)=C1C(C)=O` (stereo unspecified): the z-score turned out to be 0.863. In turn, `O=C(Nc1cccc(NC(=O)c2ccco2)c1)c1cnccn1` displayed a z-score of 0.319. `CC(C)n1nc(C(=O)NCCc2ccc(S(N)(=O)=O)cc2)c2ccccc2c1=O` came in with a z-score of 0.514. `CCCN1C(=O)/C(=C/c2ccc(C)s2)SC1=Nc1ccc(OC)cc1` yielded a z-score of -0.117. As for `CCCCOCCCNC(=O)c1ccc(NC(C)=O)cc1`, the z-score is 0.132. The value for `COc1ccccc1C(=O)Nc1ccc(S(=O)(=O)Nc2cc(C)nc(C)n2)cc1` was -0.272. The molecule `CCN(Cc1cc2ccccc2[nH]c1=O)C(=O)c1cccnc1` had a z-score of 0.367.

As for `CCc1sc(C(=O)Nc2ccc(F)cc2C)cc1C`, the z-score was -0.0957.

In the case of `Cc1sc2ncn(CC(=O)NCC(=O)N(C)Cc3ccccc3)c(=O)c2c1C`, the z-score is 0.601. The value for `CC1Oc2ccccc2N(CC(=O)N2CCc3ccccc32)C1=O` (stereo unspecified) was 0.157; that for `O=C(CC1(O)C(=O)N(CN2CCOCC2)c2ccccc21)c1ccccc1` (stereo unspecified) was 0.409; that for `CCn1c(=O)cc(OCC(=O)N2CCN(c3cccc(C(F)(F)F)c3)CC2)c2ccccc21` was -0.303. As for `CC(c1ccccc1)N1C(=O)C2C3CCC(C3)C2C1=O` (stereo unspecified), the z-score is -0.0398.

Consider `Cc1ccc(-c2cc(C(=O)Nc3ccc4c(c3)OCCO4)c3ccccc3n2)cc1`, for which the z-score amounted to 0.0222. `C=CCOC(=O)C1=C(C)NC(SC)=C(C#N)C1c1cccs1` (stereo unspecified) yielded a z-score of 1.8. The same measure for `CN(C)c1ccc(NC(=O)COC(=O)c2cc(Cl)ccc2[N+](=O)[O-])cc1`: -0.254. The value for `CSc1nnnn1-c1ccc(C(=O)OCC(=O)N2CCOCC2)cc1` was -0.227; that for `O=C(CN1CCCCCC1)N1c2ccccc2Sc2ccc(C(F)(F)F)cc21` was 0.9.

Turning to `CC(NC(=O)C(=O)NN=C1CCCCCCC1)c1ccccc1` (stereo unspecified), the z-score was -0.78. The same measure for `CCc1ccccc1NC(=O)CSc1nnc([C@@H]2CCCN2C(=O)OC(C)(C)C)o1`: -1.16; for `Cc1ccc(NC(=O)c2cc(C)n(-c3ccccc3)c2C)cc1`: 0.165.

Take `CCCCC(=O)NC(=S)Nc1cccc(NC(=O)c2ccco2)c1`: the z-score is -0.0855. Turning to `Cc1nc(NCc2ccco2)c2c(C)c(C)sc2n1`, the z-score is -1.09. With `CCCCSc1nnc(-c2ccc(NC(=O)CC)cc2)n1C`, the z-score is 0.117. The same measure for `Cc1ccc(NC(=O)Cn2c(CCC(=O)O)ccc2-c2cccs2)cc1`: -0.502; for `CC(=O)N(Cc1cccnc1)Cc1cc2ccc(C)cc2[nH]c1=O`: -0.467. In turn, `Cc1ccc(S(=O)(=O)N(C)/N=C/C=C/c2ccccc2)cc1` gave a z-score of -0.513. The same measure for `CC(=O)c1cccc(NC(=O)N2CCCc3ccccc32)c1`: -0.731. The value for `CCCSCCCNC(=O)c1cc2c(s1)CS(=O)(=O)C2` was -0.247. The same measure for `Cc1cc(C)nc(NC(=O)c2cccc(Cl)c2)n1`: 0.26; for `O[C@@H]1C2CCCC1[C@]1(O)CCCCC1C2` (stereo partly specified): -0.021. Turning to `O=C(OCC1COc2ccccc2O1)c1c(F)cccc1F` (stereo unspecified), the z-score came to 0.396. The value for `CON/C=C(\C=Nc1ccc(F)cc1)c1ncc(C(F)(F)F)cc1Cl` was -0.0959.

`O=C(O)CCc1ccc(-c2cccs2)n1-c1ccc(C(=O)O)cc1` yielded a z-score of 0.28. The same measure for `CCOC(=O)c1c(NC(=O)COC(=O)c2c(C)noc2C)sc2c1CCC2`: -0.391; for `CN(C)C(CNC(=O)c1cccnc1Sc1ccccc1)c1ccco1` (stereo unspecified): 0.416; for `NC(=O)Cc1nc(-c2ccccc2)cs1`: -0.151. The value for `CCN(CC)S(=O)(=O)c1ccc(C(=O)Nc2nnc(C(C)C)s2)cc1` was -0.2; that for `Cc1n[nH]c(=S)n1/N=C/c1ccc(OCc2ccc(Cl)cc2)cc1` was 0.0785; that for `Cc1cc(-c2ccccc2)nc(N/N=C/c2ccc([N+](=O)[O-])cc2)n1` was 0.124. The same measure for `CCCC(=O)N(c1ccc(OC)cc1)C1C=CS(=O)(=O)C1` (stereo unspecified): -0.0143. Regarding `O=C(CSCc1ccccc1)N/N=C/c1ccccc1OCc1ccccc1`, the z-score amounted to 0.274.

Consider `Cc1cc2nc(CCN3CCOCC3)n(S(=O)(=O)c3ccc(C(C)(C)C)cc3)c2cc1C`, for which the z-score was determined as 0.425. The value for `COc1ccccc1Oc1coc2cc(OC(=O)N3CCOCC3)ccc2c1=O` was -0.131; that for `COc1cccc(C(=O)NCc2nnc(SCC(=O)Nc3nccs3)n2-c2cccc(C)c2)c1` was -0.554. The same measure for `CC(=O)C1=C(O)C(=O)N(Cc2ccco2)C1c1ccc2c(c1)OCO2` (stereo unspecified): -0.881. The value for `CC(Sc1ccccc1)C(=O)Nc1ccc(N2CCOCC2)cc1` (stereo unspecified) was 0.468; that for `CCCc1cc(C(=O)NNC(=S)NCC2CCCO2)cs1` (stereo unspecified) was -0.0283; that for `CCOC(=O)CN1CCc2c(C)nc3c(-c4ccc(OC)c(OC)c4)cnn3c21` was 0.0936. As for `CCOC(=O)Cc1csc(NC(=O)c2ccc(NC(C)=O)cc2)n1`, the z-score turned out to be 0.627. The value for `COc1ccc(OCCCC(=O)NCCc2ccccc2)cc1` was -0.148. The same measure for `COc1ccc(NC(=O)c2cc(C(C)C)on2)cc1OC`: -0.725; for `N#CC(C(=O)Nc1ccc(Cl)c(Cl)c1)=C1Nc2ccccc2N1`: 0.855; for `CSc1ccc(S(=O)(=O)NC2CCCCCC2)cc1`: 1.93.

`COCC(=O)N(C)C1(c2nnnn2CCOC(=O)Nc2cccc3ccccc23)CCCC1` yielded a z-score of -0.0298.

For the molecule `CCCc1cc(=O)[nH]c(NCc2ccc(Cl)cc2)n1`, the z-score was -0.348. The value for `COC(=O)c1cc(C)sc1NC(=O)c1cccnc1` was -0.497; that for `Cc1csc(NC(=O)C2C3C=CC(C3)C2C(=O)O)n1` (stereo unspecified) was 0.819.

`CCOC(=O)COc1ccc(Br)cc1C1NC(=O)NC(C)=C1C(=O)NCc1ccccc1` (stereo unspecified): the z-score is -0.34. The same measure for `Cn1cnnc1SCC(=O)c1ccc2c(c1)OCCO2`: -0.351; for `CCCCC(=O)Nc1cc(C)c2c(=O)oc3ccccc3c2n1`: -0.115; for `Cn1cccc1/C=N/NC(=O)Cn1cnc2ccccc21`: -0.101. The value for `Cc1cc(-c2ccccc2)c2c3c(cn2n1)c(=O)n(C)c(=O)n3C` was -0.658. The value for `COC(=O)C(NC(=O)c1ccc(F)cc1)(Nc1ncc(S(=O)(=O)c2ccc([N+](=O)[O-])cc2)s1)C(F)(F)F` (stereo unspecified) was -0.342; that for `Cc1ccn2cc(CSc3ccccc3N)nc2c1` was -0.125; that for `OC(Cn1ccnc1)c1ccc(Cl)cc1Cl` (stereo unspecified) was 0.579.

Take `COc1ccc(C(C[N+](=O)[O-])n2nc(C)cc2C)cc1` (stereo unspecified): the z-score was 0.648. The same measure for `Cc1ccc(SCC(=O)O/N=C(\N)c2ccc([N+](=O)[O-])cc2)cc1`: -0.289; for `CCC1CCCCN1C(=O)CSc1nc2c(cnn2-c2ccc(C)cc2)c(=O)[nH]1` (stereo unspecified): 0.0615; for `CCOc1ccc(NC(=O)Nc2cc(OCC(F)(F)F)cc(OCC(F)(F)F)c2)cc1`: -0.0789. The same measure for `COc1cccc(=O)c2c(C)n(-c3cc(C)cc(C)c3)c(C)c12`: -0.367; for `CCOC(=O)N1CCC(Nc2c(OCC)c(=O)c2=O)CC1`: -0.0426. Regarding `CCN(CC)S(=O)(=O)c1ccc(NC(=O)CC(NC(C)=O)c2ccccc2)cc1` (stereo unspecified), the z-score is -0.224. For the molecule `O=C1C2C(C(=O)N1CCc1ccccc1)C1C=CC2C12CC2` (stereo unspecified), the z-score is 0.134. For the molecule `CC(C)(C)CNc1cc(N2CCCC2)ccc1[N+](=O)[O-]`, the z-score is -0.495.

Molecule `CN1CCN(S(=O)(=O)c2ccc(Br)s2)CC1` yielded a z-score of -0.0381. The same measure for `NC(=O)C1(N2CCCCC2)CCN(C(=O)CSc2nc3ccccc3[nH]2)CC1`: -0.432; for `Cc1ccc(S(=O)(=O)N2CCN(S(=O)(=O)N3CCOCC3)CC2)cc1C`: 0.35; for `CCN(CC)c1ccc(C2CC(=O)NC3=C2C(=O)CC(C)(C)C3)cc1` (stereo unspecified): -1.64. The same measure for `c1ccc2c(c1)NC(CN1CCOCC1)CO2` (stereo unspecified): 0.144; for `Cc1n[nH]c(C)c1CCc1nc2c3ccccc3nc(SCC(=O)Nc3ccccc3F)n2n1`: -0.0964; for `COc1cccc(N2C(=O)C3CCCN3C2c2ccc(F)cc2)c1` (stereo unspecified): -0.0703. Molecule `CC(NC(=O)Cc1cccs1)c1ccc2c(c1)OCO2` (stereo unspecified) yielded a z-score of 0.924. Take `O=C(c1cnn2c(C(F)F)cc(C3CC3)nc12)N1CCc2ccccc2C1`: the z-score was -1.15.

On to `COc1ccc(CCNC(=O)CN2CCC(C)CC2)cc1OC`, for which the z-score worked out at 0.376. The value for `CCC(C)(C)NC(=O)c1cc(C(=O)OC)cc([N+](=O)[O-])c1` was 0.4. The value for `NC(=O)C1(N2CCCCC2)CCN(C2CC(=O)NC2=O)CC1` (stereo unspecified) was 0.782.
